Reference: PubChem BioAssay AID588855 (National Center for Advancing Translational Sciences (NCATS), 2011)
Hit rate of the full screen: of about 410,000 compounds, about 5,000 (1.2%) were called active. The shares of active, inactive and inconclusive entries below differ from those in the screen. The call rests on the fitted dose curve; in most records, active means well fitted inhibition curve with a large enough effect; inconclusive means small, poorly fitted or top-dose-only effect; inactive means no such curve, though single readings can be large or run the other way. Potencies beside an inconclusive call are fits to weak or partial responses and may not hold up.

Assay: qHTS for Inhibitors of TGF-b; further: nearly all actives have a fitted effect of over 65% in size
Conditions: HepG2 CAGA-GFP TGF-b/SMAD3 reporter, GFP fluorescence, 18 h, TGF-beta stimulated, 500 pg/mL final; series mostly up to 46.1 µM; activity, negative = inhibition: at the top concentration
How it was run: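 HEPG2 CAGA-GFP cells (1000/well, DMEM with 1% FBS) were pre-incubated 2 h at 37 degrees C, given compound by pin tool, then stimulated with TGF-beta at 500 pg/mL final for 18 h before per-cell GFP fluorescence imaging.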
On the % scale 0 is the no-effect control and ±100 the full control effect; potency means the concentration at half of the fitted maximal effect; tags describe the fitted curve by direction and shape.

Structure (SMILES)	Potency	activity, negative = inhibition
CCCc1cc(=O)n2nc(N3CCC(C(=O)N4CCN(c5ccc(OC)cc5)CC4)CC3)sc2n1	inconclusive: 0.794 µM [inhibitor, partial curve, poor fit]	
CCC(C)CNC(=O)c1cccc(OC2CCN(CC(C)(C)C)CC2)c1 (stereo not given)		inactive: -3.26%
Cc1cc(C)n(C(=O)/C(C#N)=N/Nc2cc(Cl)cc(Cl)c2)n1	inconclusive: 2.51 µM [inhibitor, partial curve, poor fit]	
Cc1ccc(C)c(-n2nnnc2Sc2nnnn2-c2ccccc2)c1	inconclusive: 11.2 µM [inhibitor, partial curve]	
CSc1ccc(Cl)c(C(=O)N2CCOc3ccccc32)c1	inconclusive: 8.91 µM [inhibitor, partial curve, poor fit]	
Cc1ccc(S(=O)(=O)NCc2ccccc2)cc1C(=O)N(C)Cc1ccc(F)cc1	inconclusive: 10 µM [inhibitor, partial curve]	
Cc1ccc(S(=O)(=O)N2CCN(c3ncnc4ccccc34)CC2)cc1	inconclusive: 35.5 µM [inhibitor, single point]	
Cc1cccc(CN2CCC(C(=O)Nc3cccc(-c4cscn4)c3)CC2)n1	inconclusive: 10 µM [inhibitor, single point]	
CCSc1ncc(Cl)c(C(=O)Nc2ccc(S(=O)(=O)Nc3onc(C)c3C)cc2)n1		inactive: 8.32%
CC1(Cc2ccccc2Cl)C(=O)Nc2ccc(OC(F)(F)F)cc21 (stereo not given)	active: 11.2 µM	
COc1cc(CNCCc2c[nH]c3ccccc23)ccc1OCc1ccc(F)cc1	inconclusive: 35.5 µM [inhibitor, single point]	
O=C(CCNS(=O)(=O)c1ccc2ccccc2c1)NCCOc1ccccc1		inactive: 1.14%
CCN1CCN(C(=S)Nc2cc(C(=O)OC)ccc2C(=O)OC)CC1	inconclusive: 1.12 µM [inhibitor, partial curve, poor fit]	
O=C(NCCCc1ccccc1)C1CCN(c2nnc(-n3cccc3)s2)CC1	inconclusive: 35.5 µM [inhibitor, single point]	
CC(=O)c1c(C)oc2ccc(O)c(CN3CCOCC3)c12	inconclusive: 0.447 µM [inhibitor, full curve, poor fit]	
COCCCNC(=S)NC1CC2CCCC(C1)N2Cc1ccco1 (stereo not given)		inactive: 6.4%
COc1cc(COCC(O)CN2CCOCC2)cc(OC)c1OC (stereo not given)	inconclusive: 12.6 µM [inhibitor, single point]	
CC(c1ccc(F)cc1)n1c(Cn2ncc3ccccc3c2=O)n[nH]c1=S (stereo not given)	inconclusive: 1.26 µM [inhibitor, partial curve, poor fit]	
O=C(OCCCc1cc2ccccc2c(=O)o1)c1ccc(F)cc1	inconclusive: 10 µM [inhibitor, single point]	
Cn1cc(CN2CCCC(C(=O)c3cc(F)ccc3F)C2)c2ccccc21 (stereo not given)	inconclusive: 35.5 µM [inhibitor, single point]	
CC(=O)OCC1=C(C(=O)O)N2C(=O)C(NC(=O)c3ccc(COc4c(C)cccc4Cl)o3)C2SC1 (stereo not given)		inactive: -0.668%
O=C(COC(=O)Cc1ccccc1F)Nc1cccc(F)c1		inactive: -3.34%

Structure (SMILES)	Potency	activity, negative = inhibition
CCn1c(=O)c2cc(C(=O)Nc3cc(F)ccc3F)sc2c2ccccc21		inactive: 1.29%
COc1cccc(NC(=O)Nc2ccc(C(C)(C)C)cc2)c1	inconclusive: 35.5 µM [inhibitor, single point]	
COCCN(CC(=O)Nc1ccccc1C(F)(F)F)C(=O)/C=C/c1cc(Cl)c2c(c1)OCCO2		inactive: -1.45%
COc1ccc(OC)c2[nH]c(C(=O)N/N=C/c3ccccc3O)cc12	inconclusive: 0.562 µM [inhibitor, full curve, poor fit]	
CSCC[C@H](NC(=O)[C@H]1N2C(=O)c3ccccc3C2SC1(C)C)C(=O)NCc1ccncc1 (stereo not given in full)		inactive: 19.4%
COc1ccc(C(=O)Nc2ccc(O)c3ccccc23)cc1	inconclusive: 7.94 µM [inhibitor, partial curve, poor fit]	
CC1=NN(c2nc(-c3ccc(C)cc3)cs2)C(=O)C1N=Nc1cccc(O)c1 (stereo not given)		inactive: -19.5%
C[C@@H](NC(=O)c1nc[nH]c1C(=O)NCc1ccc(CNC(=O)OC(C)(C)C)cc1)c1ccccc1	inconclusive: 12.6 µM [inhibitor, single point]	
CN(Cc1cnn(-c2ccc(F)cc2)c1)C(=O)[C@H]1O[C@@H](n2ccc(N)nc2=O)[C@H](O)[C@@H]1O	inconclusive: 1.41 µM [inhibitor, partial curve]	
CCOCCCn1c(SCC(=O)Nc2ccc(C(C)C)cc2)nc2c(sc3ccccc32)c1=O		inactive: -22%
Cc1ccc(-n2sc3cc(F)ccc3c2=O)c(C)c1	inconclusive: 17.8 µM [inhibitor, single point]	
CC(=O)NC(CC(=O)OCC(=O)NCCc1ccccc1)c1ccccc1 (stereo not given)	inconclusive: 5.62 µM [inhibitor, single point]	
COc1ccc2nc(SCC(=O)N3CCCCC3)c(C#N)cc2c1		inactive: 11%
O=C(Nc1ccccc1)c1nc[nH]c1C(=O)N1CCc2ccccc2C1	inconclusive: 0.282 µM [inhibitor, full curve]	
CCOC(=O)C1=CCC(c2ccccc2)N(S(=O)(=O)c2ccccc2C)C1 (stereo not given)	inconclusive: 35.5 µM [inhibitor, single point]	
COC(=O)[C@]1(Cc2ccccc2)N[C@H](CN(C)C(=O)c2ccc(C(C)(C)C)cc2)[C@@H]2C(=O)N(Cc3ccccc3)C(=O)[C@@H]21		inactive: 2.21%
CC1(C(=O)Nc2ccc3[nH]ncc3c2)CCN1C(=O)CC(c1ccccc1)c1ccccc1 (stereo not given)		inactive: 2.94%
COc1ccc(OCCN2CCN(S(=O)(=O)c3ccccc3C(F)(F)F)CC2)cc1	inconclusive: 8.91 µM [inhibitor, partial curve, poor fit]	
Cc1c(C(=O)c2no[n+]([O-])c2C(=O)c2cnn(C)c2C)cnn1C	active: 7.94 µM	
CCn1nc([N+](=O)[O-])c(C(C#N)c2nc3cc(C(F)(F)F)ccc3s2)c(Cl)c1=O (stereo not given)	active: 0.355 µM	
CC(=O)c1c(C)[nH]c(C(=O)OCC(=O)Nc2cc(S(=O)(=O)N3CCCC3)ccc2Cl)c1C	inconclusive: 3.55 µM [inhibitor, full curve, poor fit]	
CCCCn1c(=O)[nH]c(=O)c2c1nc(Cn1ncc(Cl)c(Cl)c1=O)n2CCC	active: 6.31 µM	

Structure (SMILES)	Potency	activity, negative = inhibition
CCOC(=O)N1CCN(C(=O)/C(=C/c2ccccc2OC)NC(=O)c2ccccc2)CC1		inactive: -0.0143%
COc1ccc(C2C(C(N)=O)=C(C)Nc3nc(CCCO)nn32)c(OC)c1 (stereo not given)	inconclusive: 17.8 µM [inhibitor, partial curve, poor fit]	
C=CCNc1nc(-c2ccc([N+](=O)[O-])cc2)cs1	inconclusive: 20 µM [inhibitor, single point]	
CCOC(=O)c1[nH]c2ccc(F)cc2c1NC(=O)c1cc(OC)c(OC)c(OC)c1	inconclusive: 2.82 µM [inhibitor, full curve, poor fit]	
COc1ccc(N/C=C(\C2OC(=O)c3ccccc32)[N+](=O)[O-])cc1 (stereo not given)		inactive: 0%
COc1ccc(CN2C(=O)[C@@H]3Cc4c([nH]c5ccccc45)C(C)(C)N3C2=O)cc1	inconclusive: 20 µM [inhibitor, single point]	
CCCNC(=O)NC(=O)COC(=O)c1oc2ccc(OCC)cc2c1C	inconclusive: 35.5 µM [inhibitor, single point]	
CCCn1nnc(NC(=O)C(C)Oc2ccc(Cl)cc2Cl)n1 (stereo not given)	inconclusive: 22.4 µM [inhibitor, partial curve, poor fit]	
O=C(Nc1ccc(C(=O)OCc2cc(=O)n3c4c(sc3n2)CCCC4)cc1)c1ccccc1	inconclusive: 1.12 µM [inhibitor, full curve]	
CC(C)(C)c1nc2c(s1)CCc1onc(-c3ccc(Br)cc3)c1-2	inconclusive: 5.62 µM [inhibitor, single point]	
COc1ccc(N2CCN(C3CCCCC3NS(=O)(=O)c3ccc(Cl)cc3)CC2)cc1 (stereo not given)		inactive: -31.4%
Cc1ccc(C)c(-n2nnnc2Sc2nc([N+](=O)[O-])nn2C)c1	inconclusive: 5.62 µM [inhibitor, single point]	
COc1ccc(Cn2c(=O)[nH]c3cc(C(=O)N4CCN(c5cccc(Cl)c5)CC4)ccc3c2=O)cc1	inconclusive: 5.62 µM [inhibitor, single point]	
Cc1ccc(Cn2nc(C)c(C(=O)N3CCN(S(=O)(=O)/C=C/c4ccccc4)CC3)c2C)cc1	inconclusive: 12.6 µM [inhibitor, partial curve, poor fit]	
Cn1c(=O)n(-c2ccc(Br)cc2F)c(=O)c2sc3ccccc3c21		inactive: -6.4%
CCOc1ccc(NC(=O)CN2C(=O)C(c3ccccc3)=NC23CCC(C)CC3)cc1 (stereo not given)	inconclusive: 11.2 µM [inhibitor, partial curve, poor fit]	
O=C(Nc1ccccc1)C(c1ccccc1)C1CCCC1 (stereo not given)	inconclusive: 35.5 µM [inhibitor, single point]	
COc1cc2c(=O)c(S(=O)(=O)c3ccc(F)cc3)cn(Cc3ccc(Cl)cc3)c2cc1OC		inactive: -7.77%
CCCN1C(C(=O)c2ccccc2)=C(OC(=O)COc2ccccc2)c2ccccc2S1(=O)=O	inconclusive: 22.4 µM [inhibitor, partial curve, poor fit]	
Cc1ccc2c(c1)COc1c3ccc(C(=O)NCCO)cc3nn1-2	inconclusive: 0.631 µM [inhibitor, full curve, poor fit]	
Cc1cccc(N2CCN(S(=O)(=O)c3ccc4c(c3)CCCN4C(=O)C3CCC3)CC2C)c1 (stereo not given)	inactive	
